System: ATF4
Test: ATF4 western blot, 293T cell lysate controls (ER stress induction)
[1] = 293T cell lysate, cortex ATF4 blot 2

Compound	ATF4 Signal (channel 800) (293T cell lysate + Thapsigargin, western blot band signal, Dentate ATF4 Blot 1 (image 0002173_01))	ATF4 Signal (channel 800) (293T cell lysate + Thapsigargin, western blot band signal, Dentate ATF4 Blot 2 (image 0002174_01))	ATF4 Signal (channel 800) (293T cell lysate + Thapsigargin, western blot band signal, Dentate ATF4 Blot 3 (image 0002175_01))	ATF4:GAPDH signal (normalized ATF4) (293T cell lysate + Thapsigargin, western blot, Dentate ATF4 Blot 1 (image 0002173_01))	ATF4:GAPDH signal (normalized ATF4) (293T cell lysate + Thapsigargin, western blot, Dentate ATF4 Blot 2 (image 0002174_01))	ATF4:GAPDH signal (normalized ATF4) (293T cell lysate + Thapsigargin, western blot, Dentate ATF4 Blot 3 (image 0002175_01))	ATF4:GAPDH signal (normalized ATF4) (293T cell lysate, cortex ATF4 blot 1)	ATF4:GAPDH signal (normalized ATF4) [1]	ATF4 Signal (channel 800) [1]
C/C=C(/C)C(=O)O[C@H]1C(C)=C2[C@H]([C@@H]1OC(=O)CCCCCCC)[C@@](C)(OC(C)=O)C[C@H](OC(=O)CCC)[C@@]1(O)[C@H]2OC(=O)[C@@]1(C)O [Thapsigargin, thapsigargin]	1.34E+03	9.45E+02	1.24E+03	1.00E+00	1.22E+00	1.26E+00	3.82E-01	5.46E-01	1.48E+03
tunicamycin	–	–	–	–	–	–	–	5.17E-01	1.40E+03
